7 cell lines from the supplement of paper PMC4967469 can be followed below.

Common to all, as to test: Viability of human cancer cell lines after 72 h of drug (GDSC screen)
Compound in one test: C/C(O)=C(\C#N)C(=O)Nc1cc(Br)ccc1Br [LFM-A13]
The following applies: top dose 16 µM; top dose inferred. On the procedure: (§1)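 Human cancer cell lines in 384-well plates, medium with 10% serum, drug for 72 h over a 256-fold dose range (nine 2-fold or five 4-fold steps up to the top dose). Adherent lines were fixed and stained with the nucleic acid dye Syto60, suspension lines read with resazurin; signal relative to control wells, capped at 0 and 100%. One two-parameter sigmoid per drug and line, fitted in a mixed model over all curves with the slope shared within a line.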

Compound in another test: CCNC(=O)c1noc(-c2cc(C(C)C)c(O)cc2O)c1-c1ccc(CN2CCOCC2)cc1 [AUY922]
The conditions noted are these: top dose 0.256 µM; top dose inferred. As to the method: as §1

Compound in the next test: CC(O)(CS(=O)(=O)c1ccc(F)cc1)C(=O)Nc1ccc(C#N)c(C(F)(F)F)c1 [Bicalutamide]
The conditions noted are these: top dose inferred. As to the method: as §1

Compound in another test: Nc1ccn([C@@H]2O[C@H](CO)[C@@H](O)C2(F)F)c(=O)n1 [Gemcitabine]
The conditions noted are these: top dose 1.024 µM. As to the method:
as §1

Compound in a further test: NC(=O)c1cccc(-c2cc(Nc3ccc(OC(F)(F)F)cc3)ncn2)c1 [GNF-2]
The conditions noted are these: top dose 1.28 µM; top dose inferred. As to the method:
as §1

Compound in another test: Cc1cn(-c2cc(NC(=O)c3ccc(C)c(Nc4nccc(-c5cccnc5)n4)c3)cc(C(F)(F)F)c2)cn1 [Nilotinib]
The conditions noted are these: top dose 2 µM. On the procedure:
as §1

Compound in another test: O=S(=O)(c1ccccc1)N(CC(F)(F)F)c1ccc(C(O)(C(F)(F)F)C(F)(F)F)cc1 [T0901317]
The following applies: top dose 10.24 µM; top dose inferred. As to the method: as §1

Compound in a further test: Cc1ccc(Nc2cc(-c3cccc(N4C(=O)c5ccccc5C4=O)c3)ncn2)cc1NS(C)(=O)=O [KIN001-270]
The conditions noted are these: top dose 20 µM; top dose inferred. On the procedure: as §1

Compound in the next test: CC(C)c1ccccc1Cc1cc(C(=O)Nc2ccc(S(=O)(=O)c3ccccc3C(C)(C)C)cc2)c(O)c(O)c1O [TW-37]
The conditions noted are these: top dose 5 µM. On the procedure:
as §1

Compound in another test: S=C(NCc1ccc2c(c1)OCO2)N1CCN(c2ncnc3c2oc2ccccc23)CC1 [MP470]
The conditions noted are these: top dose 20 µM; top dose inferred. On the procedure:
as §1

The mark [1] stands for this setting: top dose 1.024 µM, screen: GDSC drug entry 150.
Where [2] appears, read: top dose 10 µM, screen: GDSC drug entry 1502.

IC50 is the fitted dose that halves viability relative to control wells, and lower means more sensitive; fits outside the tested doses are given as limits. The AUC spans the tested range (256-fold, ending at the top dose) of the same fit: 1 means no effect, lower means more sensitive. For part of these data: Where the top dose is marked as inferred, it was calculated from the reported fits. For part of these data: Where an entry number is given, a second screen of the drug exists; the two often differ. Where only a bound is given, the exact number is not on record here.

For WIL2-NS (lymphoid neoplasm, suspension), the AUC was determined as 0.974 in the test with LFM-A13; 0.302 with AUY922; 0.992 with Bicalutamide (setting [1]); 0.03 with Gemcitabine; 0.992 in the test with GNF-2; 0.991 with Nilotinib. For the same cell line, the AUC came out at 0.966 with T0901317, 0.954 in the test with KIN001-270 and 0.758 in the test with TW-37. Further, the IC50 with LFM-A13 was greater than 16 µM; with AUY922, 0.00504 µM; in the test with Bicalutamide (setting [1]) it was greater than 1.02 µM; with Gemcitabine, less than 0.004 µM; with GNF-2, greater than 1.28 µM; with Nilotinib, greater than 2 µM. In addition, the IC50 was greater than 10.2 µM with T0901317, greater than 20 µM with KIN001-270 and 1.45 µM with TW-37.
Consider HH (T-cell leukaemia, suspension), for which the AUC came out at 0.91 in the test with LFM-A13; 0.599 with AUY922; 0.975 with Bicalutamide (setting [1]); 0.942 with Bicalutamide (setting [2]); 0.505 with Gemcitabine; 0.978 in the test with GNF-2. For the same cell line, the AUC with Nilotinib came out at 0.963; with T0901317, 0.843; with KIN001-270, 0.887; with TW-37, 0.651. For the same cell line, the IC50 in the test with LFM-A13 was greater than 16 µM; with AUY922, 0.0328 µM; with Bicalutamide (setting [1]) it was greater than 1.02 µM; with Bicalutamide (setting [2]), greater than 10 µM; in the test with Gemcitabine it was 0.0664 µM; with GNF-2, greater than 1.28 µM. Besides, the IC50 with Nilotinib is greater than 2 µM; with T0901317, greater than 10.2 µM; in the test with KIN001-270, greater than 20 µM; in the test with TW-37 it was 0.947 µM.
Consider LS-123 (large intestine, adherent), for which the AUC with LFM-A13 turned out to be 0.945; in the test with AUY922, 0.556; with Bicalutamide (setting [1]), 0.982; with Bicalutamide (setting [2]) it was 0.957; in the test with Gemcitabine, 0.444; with GNF-2 it was 0.953. The AUC in the test with Nilotinib turned out to be 0.977; in the test with T0901317 it was 0.981; with KIN001-270, 0.959; in the test with MP470, 0.921. The IC50 is greater than 16 µM in the test with LFM-A13; 0.0239 µM with AUY922; greater than 1.02 µM with Bicalutamide (setting [1]); greater than 10 µM in the test with Bicalutamide (setting [2]); 0.0428 µM with Gemcitabine; greater than 1.28 µM in the test with GNF-2. Also, the IC50 with Nilotinib was greater than 2 µM; with T0901317, greater than 10.2 µM; in the test with KIN001-270 it was greater than 20 µM; with MP470, greater than 20 µM.
In the case of GI-ME-N (neuroblastoma, adherent), the AUC with LFM-A13 turned out to be 0.943; in the test with AUY922, 0.587; with Bicalutamide (setting [1]), 0.977; with Bicalutamide (setting [2]) it was 0.94; in the test with Gemcitabine, 0.89; with GNF-2, 0.969. Besides, the AUC in the test with Nilotinib was 0.965; with T0901317, 0.914; in the test with KIN001-270, 0.905; in the test with TW-37, 0.543. Besides, the IC50 with LFM-A13 was greater than 16 µM; with AUY922, 0.0303 µM; in the test with Bicalutamide (setting [1]), greater than 1.02 µM; with Bicalutamide (setting [2]), greater than 10 µM; with Gemcitabine it was greater than 1.02 µM; with GNF-2, greater than 1.28 µM. The IC50 with Nilotinib was greater than 2 µM; in the test with T0901317 it was greater than 10.2 µM; with KIN001-270, greater than 20 µM; in the test with TW-37, 0.426 µM.
Regarding MMAC-SF (melanoma, adherent), the AUC was found to be 0.959 with LFM-A13; 0.585 with AUY922; 0.986 with Bicalutamide (setting [1]); 0.986 with Bicalutamide (setting [2]); 0.86 with Gemcitabine; 0.963 in the test with GNF-2. In addition, the AUC was 0.963 in the test with Nilotinib, 0.985 in the test with T0901317, 0.987 in the test with KIN001-270 and 0.911 with MP470. The IC50 in the test with LFM-A13 is greater than 16 µM; in the test with AUY922, 0.0276 µM; in the test with Bicalutamide (setting [1]), greater than 1.02 µM; in the test with Bicalutamide (setting [2]), greater than 10 µM; with Gemcitabine, 0.919 µM; in the test with GNF-2, greater than 1.28 µM. Further, the IC50 was greater than 2 µM with Nilotinib, greater than 10.2 µM in the test with T0901317, greater than 20 µM with KIN001-270 and greater than 20 µM with MP470.
For the cell line “KARPAS-231 (B-cell leukaemia, suspension)”, the AUC in the test with LFM-A13 stood at 0.918; with AUY922, 0.552; with Bicalutamide (setting [1]), 0.994; with Bicalutamide (setting [2]) it was 0.992; with Gemcitabine, 0.015; with GNF-2, 0.993. Moreover, the AUC amounted to 0.951 with Nilotinib, 0.072 with T0901317, 0.463 with TW-37 and 0.89 with MP470. For the same cell line, the IC50 in the test with LFM-A13 was 14.3 µM; with AUY922, 0.0214 µM; with Bicalutamide (setting [1]) it was greater than 1.02 µM; with Bicalutamide (setting [2]), greater than 10 µM; with Gemcitabine, less than 0.004 µM; with GNF-2, greater than 1.28 µM. In addition, the IC50 with Nilotinib was greater than 2 µM; with T0901317, 0.0401 µM; in the test with TW-37, 0.254 µM; with MP470 it was 13.9 µM.
Take KOPN-8 (B-cell leukaemia, suspension): the AUC with LFM-A13 was determined as 0.971; with AUY922, 0.525; in the test with Bicalutamide (setting [1]), 0.988; with Bicalutamide (setting [2]) it was 0.988; with Gemcitabine it was 0.295; in the test with GNF-2 it was 0.986. Further, the AUC in the test with Nilotinib stood at 0.981; in the test with T0901317 it was 0.919; in the test with KIN001-270 it was 0.964; with MP470, 0.87. The IC50 is greater than 16 µM in the test with LFM-A13; 0.0186 µM in the test with AUY922; greater than 1.02 µM with Bicalutamide (setting [1]); greater than 10 µM in the test with Bicalutamide (setting [2]); 0.0187 µM with Gemcitabine; greater than 1.28 µM with GNF-2. Further, the IC50 was greater than 2 µM in the test with Nilotinib, greater than 10.2 µM in the test with T0901317, greater than 20 µM in the test with KIN001-270 and 14.3 µM in the test with MP470.

A word on the IC50: it is the concentration that gives 50% inhibition.
